# Data from PubChem BioAssay AID651815 (National Center for Advancing Translational Sciences (NCATS), 2012).
# About 1,100 (52%) of roughly 2,100 compounds were called active. The set was probably picked from earlier hits. The inconclusive results got no clear call from the source; some entries with a clear call stand among them for comparison. The call rests on the fitted dose curve; in most records, active means well fitted inhibition curve with a large enough effect; inconclusive means small, poorly fitted or top-dose-only effect; inactive means no such curve, though single readings can be large or run the other way. Potencies of inconclusive entries are left out as doubtful fits.
# Molecular target: DNA dC->dU-editing enzyme APOBEC-3F (Homo sapiens) (UniProt Q8IUX4)
# Sequence of UniProt Q8IUX4 (Q8IUX4 whole entry, looked up): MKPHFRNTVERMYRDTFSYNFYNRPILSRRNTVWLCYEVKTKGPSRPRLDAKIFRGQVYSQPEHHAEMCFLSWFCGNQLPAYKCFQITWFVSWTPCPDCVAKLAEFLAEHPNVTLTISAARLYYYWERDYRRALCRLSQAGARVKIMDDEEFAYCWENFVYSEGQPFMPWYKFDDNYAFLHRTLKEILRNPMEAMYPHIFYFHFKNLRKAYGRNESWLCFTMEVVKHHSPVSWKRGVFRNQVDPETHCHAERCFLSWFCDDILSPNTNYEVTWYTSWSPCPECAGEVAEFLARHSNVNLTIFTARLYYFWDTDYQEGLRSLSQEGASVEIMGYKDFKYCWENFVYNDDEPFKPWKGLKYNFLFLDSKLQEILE
# Assay: qHTS for inhibitors of Vif-A3F interactions: Cherry picks counterscreen; further: nearly all actives have a fitted effect of over 65% in size
# Conditions: HeLa A3F-eYFP/Vif cells, eYFP fluorescence, 24 h; series mostly up to 46.1 µM; activity, negative = inhibitor: at the top concentration
# Procedure, shortened: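 Rescue of Vif-driven A3F-eYFP degradation read as cellular eYFP fluorescence after 24 h compound exposure (several concentrations) in stable HeLa cells; MG132 (2 mM stock) as positive control.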
# On the % scale 0 is the no-effect control and ±100 the full control effect; potency means the concentration at half of the fitted maximal effect; tags describe the fitted curve by direction and shape.
SMILES,Potency,"activity, negative = inhibitor"
COc1ccccc1Nc1c2c(nc3ccc(NC(=O)c4ccc(N(C)C)cc4)cc13)CCCC2,"inconclusive [inhibitor, single point]",–
Cc1cc2nc(-c3ccc(SCC(=O)Nc4ccc(S(=O)(=O)N5CCCC5)cc4)nc3)[nH]c2cc1C,"inconclusive [inhibitor, single point]",–
O=C(NC12CC3CC(CC(C3)C1)C2)c1ccc([N+](=O)[O-])o1,"inconclusive [inhibitor, single point]",–
COc1ccc(NC(=O)C2Cc3c(-c4ccc(NC(C)=O)cc4)ccnc3O2)cn1 (stereo unspecified),"inconclusive [inhibitor, partial curve, poor fit]",–
COC(=O)c1sccc1S(=O)(=O)N(CC(=O)Nc1cc(F)ccc1F)c1ccc(C)c(C)c1,–,inactive: -18.6%
Cc1sc2ncnc(SCC(=O)NC(C)(C)C)c2c1C,–,inactive: 2.59%
O=C1COc2ccc(C(=O)CSc3nc4ccccc4c(=O)n3-c3ccc(Cl)c(Cl)c3)cc2N1,active: 23.1 µM,–
N#CC1=C(S)N(c2ccc(F)cc2)C2(CCCCC2)NC1=O,–,inactive: 16.2%
CCNC(=S)N/N=C(\C)c1ccc(N2CCOCC2)cc1,–,inactive: -2.23%
COc1cc(OC)cc(C(=O)Nc2ccc(N3CCN(C(=O)c4cccs4)CC3)cc2)c1,active: 7.9 µM,–
Cc1ccccc1C1CC(c2cccs2)=NN1S(C)(=O)=O (stereo unspecified),–,inactive: -23.5%
S=C(NC1CCCCC1)N(CCc1ccccc1)CCc1ccccc1,–,inactive: 0.222%
CC1Cc2cc(S(=O)(=O)CCC(=O)NCc3ccc(Cl)cc3)ccc2N1C(=O)C1CC1 (stereo unspecified),"inconclusive [inhibitor, single point]",–
CN(C)CCOc1ccc2c(c1)C(=O)C(=Cc1ncc([N+](=O)[O-])n1C)C2,"inconclusive [inhibitor, full curve]",–
O=C1/C(=C/c2ccc([N+](=O)[O-])cc2)Oc2cc(O)ccc21,"inconclusive [inhibitor, single point]",–
Cc1c(/C=N\NC(=O)c2cc3ccccc3o2)c2ccccc2n1C,active: 5.59 µM,–
CCn1c(CNC(=O)C23CC4CC(CC(C4)C2)C3)nnc1SCC(=O)Nc1ccc(OC)cc1,–,inactive: 0.0525%
CCC(=O)NC(=S)Nc1cccc(Cl)c1N1CCCC1,–,inactive: -20.3%
CC(=O)N/N=C/c1cc(C(C)C)cc(/C=N/NC(C)=O)c1O,–,inactive: 1.76%
COc1ccc(NC(=O)c2ccc(NC(=O)C(C)C)cc2)c([N+](=O)[O-])c1,"inconclusive [inhibitor, partial curve]",–
CCOC(=O)c1c(NC(=O)CSc2nc3ccc(OC)cc3[nH]2)sc2c1CC(C)(C)NC2(C)C,–,inactive: -11.3%
Cc1ccc(-c2nc3ccccc3o2)cc1NC(=S)NC(=O)/C=C/c1ccco1,"inconclusive [inhibitor, full curve]",–
CCN(CC)c1ccc(NC(=O)CSc2nc(C3CC3)nc3ccccc23)cc1C,"inconclusive [inhibitor, partial curve]",–
C(=C\c1c[nH]c2ccccc12)/c1nccc2ccccc12,active: 18.4 µM,–
COc1cc(OC)c(/C=C/c2ccnc3ccccc23)c(OC)c1,active: 5.8 µM,–
COC(=O)COc1cccc2c(=O)n(CC(=O)NCc3ccccc3)ccc12,active: 4.44 µM,–

SMILES,Potency,"activity, negative = inhibitor"
C=CCSc1nc2sc3c(c2c(=O)n1CC)CCC3,–,inactive: -15.9%
CC(=O)C1=C(C)NC(SCC(=O)c2ccc(Cl)cc2)=C(C#N)C1c1ccco1 (stereo unspecified),"inconclusive [inhibitor, partial curve]",–
COc1ccc2nc3ccccc3nc2c1NC(=O)c1ccc(Cl)cc1Cl,"inconclusive [inhibitor, single point]",–
O=c1c[n+]([O-])c2ccccc2n1OCc1c(F)cccc1F,"inconclusive [inhibitor, single point]",–
COc1ccc(OC)c(Nc2ncnc3c2cnn3-c2cccc(Cl)c2)c1,"inconclusive [inhibitor, full curve]",–
S=C(NN=Cc1ccccn1)Nc1ccccn1,–,inactive: 13.5%
COC(=O)c1sc(NC(=O)c2ccc([N+](=O)[O-])o2)c(C#N)c1C,"inconclusive [inhibitor, single point]",–
COc1ccc(OC)c(NC(=O)c2sc3nc(Cc4ccccc4)cc(C(F)(F)F)c3c2N)c1,"inconclusive [inhibitor, single point]",–
Cc1cc(-c2nc(C)c(C(=O)NN)s2)no1,"inconclusive [inhibitor, single point]",–
O=C(N/N=C/c1ccc([N+](=O)[O-])o1)c1cn2ccc3ccccc3c2n1,"inconclusive [inhibitor, single point]",–
CCNc1ccc(Br)cc(C(=O)/C=C/c2ccccc2Cl)c1=O,"inconclusive [inhibitor, single point]",–
COc1ccc(-n2nnnc2-c2ccccc2)cc1,active: 2.5 µM,–
Cc1cccc(Nc2nnc(SC/C(O)=C(\C#N)c3nc4ccccc4[nH]3)s2)c1,"inconclusive [inhibitor, single point]",–
N#CC1=C(N)Oc2cc(N)ccc2C1c1ccc(F)cc1F (stereo unspecified),active: 20.6 µM,–
Cc1ccc(C(=O)c2cc([N+](=O)[O-])ccc2N2CCOCC2)cc1C,active: 1.77 µM,–
N=C1C(c2nc3ccccc3[nH]2)=C(O)CN1c1ccccc1,"inconclusive [inhibitor, partial curve]",–
O=C(NCC1CCCO1)c1nn2c(C(F)(F)F)cc(-c3cc(Br)cs3)nc2c1Br (stereo unspecified),active: 11.6 µM,–
CCc1ccc(C(=O)NC(=S)Nc2ccc(N3CCOCC3)cc2)cc1,–,inactive: 3.84%
O=C1/C(=C\c2ccc(O)cc2)SC(=S)N1Cc1ccccc1,–,inactive: 27.8%
O=[N+]([O-])c1ccc(N=Nc2ccc(O)c3ccccc23)cc1,–,inactive: -18.6% [at 36.9 µM]
COc1ccc(/C=C2\CN(Cc3ccccc3)C/C(=C\c3ccc(OC)c(O)c3)C2=O)cc1O,"inconclusive [inhibitor, single point]",–
COc1ccccc1-c1cc(NC=O)c2ncc(-c3cccc(C(=O)N(C)C)c3)n2c1,active: 14 µM,–
O=c1[nH]c2ccccc2n2c(=S)[nH]nc12,"inconclusive [inhibitor, single point]",–
COc1cc(/C=C2\SC(=S)N(Nc3ncc(C(F)(F)F)cc3Cl)C2=O)ccc1O,active: 20.6 µM,–
O=C1c2ccccc2C(=O)c2cc(N3CCCCC3)ccc21,active: 7.04 µM,–
